Measured values reported in article PMC4336329 (PLoS ONE, 2015).
In all, about 310,000 compounds went through this assay and about 2,200 (0.71%) showed an effect of 50% or more. Effects have a minus sign here. Some of the results follow.

Target: human ether-à-go-go-related gene (hERG) potassium channel (human, UniProt Q12809)
Experiment: primary screen, population patch clamp on CHO cells stably expressing hERG

Sequence of human ether-à-go-go-related gene (hERG) potassium channel (Q12809 whole entry, looked up): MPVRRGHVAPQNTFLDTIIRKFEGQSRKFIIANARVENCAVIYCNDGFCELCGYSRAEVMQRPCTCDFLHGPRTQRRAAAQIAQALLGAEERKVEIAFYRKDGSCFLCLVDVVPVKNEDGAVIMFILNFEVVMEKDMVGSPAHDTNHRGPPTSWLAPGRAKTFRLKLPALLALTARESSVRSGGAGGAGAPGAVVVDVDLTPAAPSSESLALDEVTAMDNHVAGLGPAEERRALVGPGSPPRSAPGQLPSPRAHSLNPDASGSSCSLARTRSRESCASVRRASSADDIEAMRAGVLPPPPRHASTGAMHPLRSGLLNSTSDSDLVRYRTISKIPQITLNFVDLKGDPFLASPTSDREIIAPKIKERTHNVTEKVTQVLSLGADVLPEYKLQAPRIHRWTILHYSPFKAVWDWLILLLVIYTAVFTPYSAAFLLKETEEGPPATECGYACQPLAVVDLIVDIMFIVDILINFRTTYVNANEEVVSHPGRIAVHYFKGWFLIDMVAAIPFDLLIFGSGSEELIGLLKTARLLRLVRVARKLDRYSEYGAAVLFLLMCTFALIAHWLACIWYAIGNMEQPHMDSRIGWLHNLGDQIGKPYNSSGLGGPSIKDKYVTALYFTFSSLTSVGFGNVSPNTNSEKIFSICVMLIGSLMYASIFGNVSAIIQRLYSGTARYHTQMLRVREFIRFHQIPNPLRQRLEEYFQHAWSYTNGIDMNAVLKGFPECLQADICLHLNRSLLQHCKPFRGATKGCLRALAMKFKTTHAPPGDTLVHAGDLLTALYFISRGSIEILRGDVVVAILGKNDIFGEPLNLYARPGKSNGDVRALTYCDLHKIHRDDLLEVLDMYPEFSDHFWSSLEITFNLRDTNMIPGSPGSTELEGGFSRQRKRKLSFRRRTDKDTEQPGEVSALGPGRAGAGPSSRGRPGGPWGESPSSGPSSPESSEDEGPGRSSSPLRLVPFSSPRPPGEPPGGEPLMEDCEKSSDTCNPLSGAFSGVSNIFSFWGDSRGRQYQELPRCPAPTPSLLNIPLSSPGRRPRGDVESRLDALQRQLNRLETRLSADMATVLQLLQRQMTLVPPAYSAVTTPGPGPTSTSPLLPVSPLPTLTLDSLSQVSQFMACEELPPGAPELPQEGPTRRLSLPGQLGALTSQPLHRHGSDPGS

| SMILES | hERG current change (%, negative = inhibition) at 1uM [%] |
| --- | --- |
| C/C(=N\O)c1ccc2c3ccccc3n(C)c2c1 | 19.8 |
| Cc1csc2c(SCC(=O)NNS(=O)(=O)c3cccc(C(F)(F)F)c3)ncnc12 | 19 |
| Cc1cc(=O)[nH]c(SCC(=O)Nc2ccc(C)c(S(=O)(=O)N3CCCCC3)c2)n1 | 6.71 |
| Cc1cc(NC(=O)CCC(=O)N(CC2CCCO2)C(C(=O)NC2CCCC2)c2ccccc2C)no1 (centres unmarked) | 9.52 |
| O=C(CSc1ccccc1Cl)c1ccco1 | 0.27 |
| COc1ccc(C(=O)C2CCCN(C(=O)c3ccoc3C)C2)cc1F (centres unmarked) | 7.19 |
| Cl.NCCCC[C@H](N)c1nnc([C@H](CCC(=O)O)NC(=O)C2CCNCC2)o1 | 9.55 |
| C/C=C/C(=O)OCC(=O)Nc1cc(OC)c([N+](=O)[O-])cc1C | 6.58 |
| CCOC(=O)c1cnc2c(-c3ccccc3)cnn2c1C | 5.5 |
| CC(NCC1COc2ccccc2O1)C1COc2ccccc2O1 (centres unmarked) | 14.1 |
| O=C(COc1ncnc2ccccc12)c1ccc(Cl)cc1 | 19.3 |
| COc1ccc(SCC(=O)c2cc(C)c(OC(=S)N(C)C)c(C)c2)cc1 | 13.1 |
| CC1CC(C)(C)NC(=S)N1CCCC(=O)Nc1ccc(Cl)cc1 (centres unmarked) | 0.795 |
| O=c1cc(CSc2nnc(-c3ccccc3)o2)c2ccccc2[nH]1 | 10.7 |
| CCOc1cc(N2CCOCC2)c(OCC)cc1NS(=O)(=O)c1ccc(Cl)s1 | 10.5 |
| O=C1C2CC=CCC2C(=O)N1c1ncn[nH]1 (centres unmarked) | 15.1 |
| C/C(=N/NC(=O)c1ccccn1)c1ccc(O)cc1 | 5.45 |
| COC(=O)c1c(C(=O)OC)c(-c2cccc(F)c2)n2c1CS(=O)(=O)C2 | -1.71 |
| CCC(=NCc1ccco1)c1c(O)n(-c2ccccc2C)c(=O)[nH]c1=O | 17.2 |
| CCN(CC)CCNC(=O)c1cn(CCOC)c(=O)c2c1c1ccccc1n2C | 7.86 |
| O=C(COc1ccc2ccccc2c1Br)N1CCCCC1 | 8.38 |
| O=C(C1CCC1)N1CCC(O)(c2cccc(F)c2)CC1 | 1.27 |

| SMILES | hERG current change (%, negative = inhibition) at 1uM [%] |
| --- | --- |
| C=CCNC(=O)c1c(Br)cnn1-c1ccc(C)cc1 | 15.5 |
| CC(C)(C)C1=C(C#N)C(c2ccc3c(c2)OCO3)C(C#N)=C(N)O1 (centres unmarked) | 3.47 |
| CCC1CCCCN1CCCNC(=O)Cn1ncn2nc(-c3ccc(OC)cc3)cc2c1=O (centres unmarked) | -14.9 |
| CCCCC(=O)c1ccc(O)cc1O | 4.84 |
| Cc1nn2c(-n3ccnc3C)c3c(nc2c1-c1ccccc1)CCC3 | 2.09 |
| O=C(O)CSCC(=O)Nc1ccc(C2CCCCC2)cc1 | -1.73 |
| COc1ccccc1CCNC(=O)C(=O)NCC1OCCN1S(=O)(=O)c1ccc(Cl)cc1 (centres unmarked) | 11.2 |
| CCN(c1ccc2c(c1)OCO2)S(=O)(=O)c1cc(Br)cc2c1N(C(=O)C1CC1)CC2 | 8.82 |
| Cc1nc2cc(NC(=O)c3ccc(Br)s3)ccc2s1 | 13.9 |
| O=C(Nc1ccc(N2CCN(C(=O)c3ccco3)CC2)cc1)c1cccc(F)c1 | -3.64 |
| CCOC(=O)c1ccc(S(=O)(=O)N2CCC(C(=O)O)CC2)cc1 | 18.5 |
| CC1CCN(C(=O)c2cc(-c3ccc(Cl)c(Cl)c3)on2)CC1 | 7.09 |
| CS(=O)(=O)N1CCc2cc(C(=O)Nc3ccc(Cl)cc3)ccc21 | 1.76 |
| c1nc2sc3c(c2c2nnnn12)CCCC3 | 13.4 |
| Cc1ccc(C(O)(C(=O)NNS(=O)(=O)c2ccc(C)cc2)c2ccc(C)cc2)cc1 | 13.4 |
| CC1CCN(Cc2c(C#N)c3ccccc3n2C)CC1 | 20 |
| COc1cc(O)c(C(CC(=O)N2CCCCC2)c2cc(OC)c(OC)c(OC)c2)c(OC)c1 (centres unmarked) | 14.3 |
| COc1cc(/C=C2/SC(=S)N(c3c(C)n(C)n(-c4ccccc4)c3=O)C2=O)ccc1O | 17.2 |
| COc1ccc(NC(=O)CSc2nnc(NC(=O)c3ccco3)s2)cc1OC | 8.59 |
| Cc1nn(C)c(C(=O)NCc2ccc(Cl)cc2)c1Cl | 9.39 |
| Cc1cc(C(=O)Nc2ccccc2)oc(=O)c1 | 12.7 |
| CCC(=O)NC(=S)Nc1cccc(Cl)c1N1CCCCC1 | -8.33 |
